Results: PubChem BioAssay AID540317 (National Center for Advancing Translational Sciences (NCATS), 2011)
Hit rate of the full screen: of about 390,000 compounds, about 2,200 (0.56%) were called active. The shares of active, inactive and inconclusive entries below differ from those in the screen. Calls come from the whole dose curve; as a rule, active = well fitted inhibition curve with a large enough effect; inconclusive = small, poorly fitted or top-dose-only effect; inactive = no such curve, though single readings can be large or run the other way. Potencies beside an inconclusive call are fits to weak or partial responses and may not hold up.

These molecules were tested against Chromobox protein homolog 1 (Homo sapiens) (UniProt P83916) (assay: HTS for Inhibitors of HP1-beta Chromodomain Interactions with Methylated Histone Tails). Details: AlphaScreen HP1-beta / biotin-H3K9me3 peptide binding; series mostly up to 114 µM.
How it was run: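 AlphaScreen: HP1-beta (50 nM) preformed 30 min with biotin-H3(1-18)K9me3 peptide (50 nM) in PBS pH 7.4, 0.01% Tween-20. Compound added for 30 min at RT, then streptavidin donor/nickel chelate acceptor beads (10 ug/mL) for 30 min.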
Note: nearly all actives have a fitted effect of over 70% in size.
Potency is the fitted concentration of half-maximal effect; tags give direction and shape of the fitted curve.

Chain of UniProt P83916 (P83916 whole entry, looked up): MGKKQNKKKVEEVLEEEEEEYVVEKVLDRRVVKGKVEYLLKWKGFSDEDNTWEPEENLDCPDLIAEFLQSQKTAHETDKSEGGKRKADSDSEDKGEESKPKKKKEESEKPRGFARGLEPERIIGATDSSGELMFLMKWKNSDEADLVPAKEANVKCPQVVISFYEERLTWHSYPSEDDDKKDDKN

Row | SMILES | Potency
1 | CCN1C(=O)C(=Cc2ccc(C)s2)C(=O)N(CC)C1=S | active: 39.8 µM
2 | COc1ccc(CN2CCN(C(=O)COc3cccc(C)c3)CC2)c(OC)c1 | inconclusive: 56.2 µM [inhibitor, partial curve, poor fit]
3 | O=C(NC1(C(F)(F)F)Oc2ccccc2O1)N1CCC2(CC1)OCCO2 | inconclusive: 89.1 µM [inhibitor, single point]
4 | CCCCN1C(=O)NC(=O)/C(=C/c2cnc(SC)nc2)C1=O | inactive
5 | CCN(CC)c1ccc([N+](=O)[O-])c2cccnc12 | inconclusive: 50.1 µM [inhibitor, partial curve]
6 | NC1CCc2cc(O)c(O)cc2C1 (stereo not drawn) | inconclusive: 3.98 µM [inhibitor, full curve, poor fit]
7 | Cc1cc(OC(=O)N(C)C)nc2c1c(C)nn2C | inconclusive: 25.1 µM [inhibitor, single point]
8 | COc1ccc(N(C)C(=O)Cn2c(=O)oc3ccccc32)c(OC)c1 | inconclusive: 28.2 µM [inhibitor, single point]
9 | COc1ccc(OCC(=O)N2CCN(Cc3c[nH]c4ccccc34)CC2)cc1 | inconclusive: 28.2 µM [inhibitor, full curve]
10 | CCCC[N+]12CCC(CC1)C(=C(c1ccccc1)c1ccccc1)C2 | inconclusive: 89.1 µM [inhibitor, partial curve, poor fit]
11 | COC1CC(C)C(OC)c2cc(O)cc(c2O)NC(=O)C(C)=CC=CC(C)C(OC(N)=O)C(C)=CC(C)C1OC (stereo not drawn) | active: 70.8 µM
12 | Cc1ccc(C2=NCC(=O)N(CC(=O)N3CCCCC3)c3sc(C)c(C)c32)cc1 | inconclusive: 28.2 µM [inhibitor, single point]
13 | COCCNCCOc1ccc(C(C)(C)c2ccccc2)cc1 | inconclusive: 79.4 µM [inhibitor, single point]
14 | CN1CCN(Cc2ccc(Br)s2)CC1 | inconclusive: 79.4 µM [inhibitor, partial curve]
15 | Cc1ccc2c(C)c3ccc4ccccc4c3c[n+]2c1 | inactive
16 | COc1ccc(C=C2C(=O)NC(=S)NC2=O)cc1OC | inconclusive: 50.1 µM [inhibitor, partial curve, poor fit]
17 | CC(OC(=O)COc1ccc(Nc2ccccc2)cc1)C(=O)N(C)c1ccccc1 (stereo not drawn) | inconclusive: 50.1 µM [inhibitor, partial curve, poor fit]
18 | O=C(C1CCN(Cc2ccccc2)CC1)N1CCCC1 | inconclusive: 56.2 µM [inhibitor, partial curve, poor fit]
19 | Clc1cccc(Cl)c1CN1CCN(c2ccccc2)CC1 | inconclusive: 31.6 µM [inhibitor, full curve, poor fit]
20 | CC(C)COC(=O)OCN1C(=O)CN(CCN2CC(=O)N(COC(=O)OCC(C)C)C(=O)C2)CC1=O | inactive
21 | C[C@H]1COC2=C1C(=O)C(=O)c1c2ccc2c1CCCC2(C)C | inconclusive: 28.2 µM [inhibitor, partial curve]
22 | O=c1[nH]c(=S)n(Cc2ccco2)c(O)c1C=NCc1cccs1 | inconclusive: 25.1 µM [inhibitor, full curve, poor fit]
23 | O=C(Cc1ccccc1)N1CCN(Cc2ccc([N+](=O)[O-])cc2)CC1 | inconclusive: 15.8 µM [inhibitor, full curve, poor fit]

Row | SMILES | Potency
24 | NC(=O)c1ncn([C@@H]2O[C@H](CO)[C@@H](O)[C@H]2O)n1 | inactive
25 | CC(C)=CCSc1nnc([C@@H](N)Cc2c[nH]c3ccccc23)o1 | inconclusive: 89.1 µM [inhibitor, single point]
26 | O=C(N=Nc1c(O)[nH]c(=O)[nH]c1=O)C1COc2ccccc2O1 (stereo not drawn) | inactive
27 | Cc1cccc(N=C2c3cc([N+](=O)[O-])ccc3-c3c2cc([N+](=O)[O-])cc3[N+](=O)[O-])c1 | active: 2.82 µM
28 | O=[N+]([O-])c1ccccc1CNCCc1ccc(F)cc1 | inconclusive: 50.1 µM [inhibitor, single point]
29 | CC1CCCCN1Cc1cccnc1 (stereo not drawn) | inconclusive: 14.1 µM [inhibitor, full curve, poor fit]
30 | COC(=O)CSC1=NN1c1cc(C)nc(N)n1 | inactive
31 | COc1ccc(NC(=O)CN2C(=O)C(C)N=C(c3ccccc3F)c3cc(Cl)ccc32)c(OC)c1 (stereo not drawn) | inactive
32 | CCCCOc1ccc(CN2C(=O)C(=O)c3cc(C)ccc32)cc1OC | inconclusive: 11.2 µM [inhibitor, full curve, poor fit]
33 | Fc1ccccc1N1CCN(Cc2c(F)cccc2F)CC1 | inconclusive: 15.8 µM [inhibitor, full curve, poor fit]
34 | Cc1ccccc1C(=O)NNC(=S)NC(=O)COc1ccccc1 | inconclusive: 50.1 µM [inhibitor, partial curve]
35 | Cc1cc(C=C2C(=O)N(C)C(=S)N(C)C2=O)c(C)n1-c1ccncc1 | inconclusive: 17.8 µM [inhibitor, full curve]
36 | O=C1NC(=O)C(=Cc2ccc(SC3CCCCC3)o2)C(=O)N1 | active: 50.1 µM
37 | COc1ccc2[nH]c(C)c(CCNCc3cc(OC)c(OC)c(OC)c3)c2c1 | inconclusive: 56.2 µM [inhibitor, single point]
38 | CSc1ccc(CN2CCN(C(=O)Cc3ccccc3)CC2)cc1 | inconclusive: 15.8 µM [inhibitor, partial curve, poor fit]
39 | C=CCN1C(=O)NC(=O)/C(=C/c2cc3c4c(c2)CCCN4CCC3)C1=O | active: 20 µM
40 | CN1C(=O)/C(=C/C=C/c2ccco2)C(=O)NC1=S | active: 11.2 µM
41 | COc1ccc(NC(=S)NC(NC(=O)CF)C(Cl)(Cl)Cl)cc1[N+](=O)[O-] (stereo not drawn) | inconclusive: 28.2 µM [inhibitor, full curve]
42 | COc1ccc(CN2CCN(Cc3ccccc3OC)CC2)cc1 | inconclusive: 12.6 µM [inhibitor, full curve, poor fit]
43 | O=C1NC(=S)NC(=O)C1=Cc1ccc(Br)s1 | inconclusive: 17.8 µM [inhibitor, full curve]
44 | C/C=C(\C)CN1CCN(c2ccccc2F)CC1 | inconclusive: 0.447 µM [inhibitor, full curve, poor fit]
45 | Cc1cc(/C=C2\C(=O)NC(=O)N(c3ccccc3F)C2=O)c(C)n1-c1cc(C(=O)O)cc(C(=O)O)c1 | active: 12.6 µM
46 | CCC(C)N1C(=O)/C(=C\c2cc3c4c(c2)CCCN4CCC3)C(=O)NC1=S (stereo not drawn) | inconclusive: 15.8 µM [inhibitor, partial curve, poor fit]

Row | SMILES | Potency
47 | O=c1[nH]c2ccccc2n1C1CCN(CCCC(c2ccc(F)cc2)c2ccc(F)cc2)CC1 | inconclusive: 44.7 µM [inhibitor, partial curve, poor fit]
48 | COc1ccc(C2NCc3ccc4c(c3-n3cccc32)OCO4)cc1OC (stereo not drawn) | inconclusive: 79.4 µM [inhibitor, single point]
49 | COc1ccc(-n2cnc3cc(C(=O)N4CCC5(CC4)OCCO5)ccc32)cc1 | inactive
50 | COC(=O)C1=C(c2ccc(OC)c(OC)c2)C[C@@H]2CC[C@H]1N2C(=O)N1CCCCC1 | inactive
51 | N#CC(C#N)=NNc1ccc([N+](=O)[O-])cc1 | inconclusive: 39.8 µM [inhibitor, full curve]
52 | Brc1ccccc1CNCCc1ccc2c(c1)OCO2 | inconclusive: 63.1 µM [inhibitor, partial curve, poor fit]
53 | CC(C)C[C@H](NC(=O)C1CC(=O)N(c2ccc3c(c2)OCO3)C1)C(=O)NCc1ccco1 (stereo partly drawn) | inactive
54 | COC(=O)CC1=C(C(=O)OC)C2(C(=O)Nc3c(C)cccc32)C(C#N)=C(N)O1 (stereo not drawn) | inactive
55 | COc1ccc(N2C(=O)/C(=C/c3ccc(OC)c(OC)c3)C(=O)NC2=S)cc1 | inconclusive: 22.4 µM [inhibitor, full curve]
56 | CCOc1ccccc1CN1CCN(S(=O)(=O)CC)CC1 | inconclusive: 15.8 µM [inhibitor, full curve]
57 | CC(C)c1ccc(N2C(=O)NC(=O)/C(=C/C=C/c3ccco3)C2=O)cc1 | inactive
58 | CCC1(C)CC(C(N)=S)CCO1 (stereo not drawn) | inconclusive: 11.2 µM [inhibitor, full curve, poor fit]
59 | CCOC(=O)c1sc(/N=C/c2c(O)n(-c3ccccc3)c(=O)[nH]c2=O)c(C#N)c1C | inconclusive: 31.6 µM [inhibitor, partial curve, poor fit]
60 | O=[N+]([O-])c1cccc(CN2CCN(Cc3ccc(Br)cc3)CC2)c1 | inconclusive: 20 µM [inhibitor, full curve]
61 | CCN1CCN(CC(c2ccccc2)c2ccccc2)CC1 | inconclusive: 39.8 µM [inhibitor, partial curve, poor fit]
62 | NCCc1c[nH]c2ccc(C(N)=O)cc12 | inactive
63 | COc1ccc(-n2c(CNCCc3ccc(C)cc3)nc3ccccc3c2=O)cc1 | inactive
64 | COc1ccc(S(=O)(=O)Nc2ccccc2OC)cc1N=Nc1c(O)[nH]c(=S)[nH]c1=O | inconclusive: 70.8 µM [inhibitor, partial curve, poor fit]
65 | N/C(=N\N=C/c1ccc(-c2ccc(O)c(C(=O)O)c2)o1)N[N+](=O)[O-] | active: 15.8 µM
66 | CC(C)=CCCC(C)CN(C)CCc1ccccn1 (stereo not drawn) | inconclusive: 56.2 µM [inhibitor, partial curve, poor fit]
67 | Cc1ccc(-n2nc(C)c3c2NC(=O)CSC3c2ccc3c(c2)OCO3)cc1 (stereo not drawn) | inconclusive: 50.1 µM [inhibitor, partial curve, poor fit]
68 | O=[N+]([O-])c1ccc(CN2CCN(c3ccc(Cl)cc3)CC2)o1 | inconclusive: 14.1 µM [inhibitor, full curve]
